Test results reported in PubChem BioAssay AID489038 (National Center for Advancing Translational Sciences (NCATS), 2010).
Inconclusive results, whose numbers are uncertain, are shown. No potency is given beside an inconclusive call; the fits are too rough.

Experiment: DHR3 selectivity assay for inhibitors of ROR gamma transcriptional activity
Conditions: Drosophila S2 Gal4-DHR3 UAS-luciferase, 20 h; active = well fitted inhibition curve with a large enough effect; inconclusive = small, poorly fitted or top-dose-only effect, or effect the other way; inactive = no such curve, though single readings can be large or run the other way
Description: NIH Molecular Libraries Probe Production Network [MLPCN] NIH Chemical Genomics Center [NCGC] MLPCN Grant: R03 DA026211-01 Assay Provider: Dan Littman, New York University Assay Overview: The retinoic acid-related orphan receptor (ROR) gamma is a transcription factor that has a central role in the differentiation of Th17 cells, a subset of T helper cells that secrete the inflammatory cytokines IL-17A, IL-17F, and IL-22. Th17 cells have been implicated in graft versus host disease, autoimmune disease and asthma. RORgamma is induced in naive T helper cells in the presence of TGF-beta combined with IL-6, IL-21, or IL-23, and thereafter directs the expression of the Th17 lineage cytokines. […] Small molecule inhibitors that inhibit components common to the RORgamma and DHR3 assays, such as proteins that interact with general nuclear hormone receptors, will be active in both assays and thus scored as nonselective.
Assay Protocol Summary: For screening, 600 cells in 4 uL/well were dispensed into white solid 1536-well plates (Grenier) using a solenoid-based dispenser. […] After addition of 1.5 uL Photinus luciferase detection reagent, the plates were incubated 10 min at ambient temperature and then read by an ViewLux (Perkin Elmer) to detect luminescence.
Potency is the fitted concentration of half-maximal effect; tags give direction and shape of the fitted curve.

Compound	Potency
CO[C@H]1[C@@H](O)CC(OC2[C@@H](O)CC(OC3[C@@H](O)C[C@H](OC4CC[C@@]5(C)C(CCC6C5CC(O)[C@]5(C)[C@H](C7=CC(=O)OC7)CCC65O)C4)O[C@@H]3C)O[C@@H]2C)O[C@@H]1C (some centres not stated)	inconclusive [inhibitor, full curve, poor fit]
CC1OC(O[C@@H]2C(O)CC(O[C@@H]3C(O)C[C@@H](OC4CC[C@@]5(C)C6CC[C@]7(C)C(C8=CC(=O)OC8)C(O)C[C@@]7(O)[C@H]6CC[C@@H]5C4)OC3C)OC2C)CC(O)C1O (some centres not stated)	inconclusive [inhibitor, full curve, poor fit]
